To fix the notation:
B1: AACCCUG (DNA:RNA)
RNA: GGGAGACCGGAAUUCAGAUUGUCCAACCCUGUUAAAUCCCGUCGUAGCCACCA
DNA 1: CAATCTGAATTCCGGTCTCCC
DNA 2: TGGTGGCTACGACGGGATT
B2: GUAGUUG (DNA:RNA)
RNA: B1 RNA with A25G, A26U, C27A, C28G, C29U
DNA 1: CAATCTGAATTCCGGTCTCCC
DNA 2: TGGTGGCTACGACGGGATT
B3: UAGGGAG (DNA:RNA)
RNA: B1 RNA with A25U, C27G, C28G, C29G, U30A
DNA 1: CAATCTGAATTCCGGTCTCCC
DNA 2: TGGTGGCTACGACGGGATT
B4: CAAGCUA (DNA:RNA)
RNA: B1 RNA with A25C, C27A, C28G, G31A
DNA 1: CAATCTGAATTCCGGTCTCCC
DNA 2: TGGTGGCTACGACGGGATT
B5: GGCUGUU (DNA:RNA)
RNA: B1 RNA with A25G, A26G, C28U, C29G, G31U
DNA 1: CAATCTGAATTCCGGTCTCCC
DNA 2: TGGTGGCTACGACGGGATT
B6: UGCCUGU (DNA:RNA)
RNA: B1 RNA with A25U, A26G, C29U, U30G, G31U
DNA 1: CAATCTGAATTCCGGTCTCCC
DNA 2: TGGTGGCTACGACGGGATT
B7: UCUGACG (DNA:RNA)
RNA: B1 RNA with A25U, A26C, C27U, C28G, C29A, U30C
DNA 1: CAATCTGAATTCCGGTCTCCC
DNA 2: TGGTGGCTACGACGGGATT
B8: CAUGGAG (DNA:RNA)
RNA: B1 RNA with A25C, C27U, C28G, C29G, U30A
DNA 1: CAATCTGAATTCCGGTCTCCC
DNA 2: TGGTGGCTACGACGGGATT
B9: CUCUAUU (DNA:RNA)
RNA: B1 RNA with A25C, A26U, C28U, C29A, G31U
DNA 1: CAATCTGAATTCCGGTCTCCC
DNA 2: TGGTGGCTACGACGGGATT
B10: AAAUGGG (DNA:RNA)
RNA: B1 RNA with C27A, C28U, C29G, U30G
DNA 1: CAATCTGAATTCCGGTCTCCC
DNA 2: TGGTGGCTACGACGGGATT
B11: CCCUUGA (DNA:RNA)
RNA: B1 RNA with A25C, A26C, C28U, C29U, U30G, G31A
DNA 1: CAATCTGAATTCCGGTCTCCC
DNA 2: TGGTGGCTACGACGGGATT
B12: GGGCAGU (DNA:RNA)
RNA: B1 RNA with A25G, A26G, C27G, C29A, U30G, G31U
DNA 1: CAATCTGAATTCCGGTCTCCC
DNA 2: TGGTGGCTACGACGGGATT
B13: UCAUGGC (DNA:RNA)
RNA: GGGAGACCGGAAUUCAGAUUGUCCUCAUGGCUUAAAUCCCGUCGUAGCCACCA
DNA 1: CAATCTGAATTCCGGTCTCCC
DNA 2: TGGTGGCTACGACGGGATT
B14: GCGGAGU (DNA:RNA)
RNA: B13 RNA with U25G, A27G, U28G, G29A, C31U
DNA 1: CAATCTGAATTCCGGTCTCCC
DNA 2: TGGTGGCTACGACGGGATT
B15: GUCACUU (DNA:RNA)
RNA: B1 RNA with A25G, A26U, C28A, G31U
DNA 1: CAATCTGAATTCCGGTCTCCC
DNA 2: TGGTGGCTACGACGGGATT
B16: GAGUCGU (DNA:RNA)
RNA: B1 RNA with A25G, C27G, C28U, U30G, G31U
DNA 1: CAATCTGAATTCCGGTCTCCC
DNA 2: TGGTGGCTACGACGGGATT
B17: GUCAUAA (DNA:RNA)
RNA: B1 RNA with A25G, A26U, C28A, C29U, U30A, G31A
DNA 1: CAATCTGAATTCCGGTCTCCC
DNA 2: TGGTGGCTACGACGGGATT
B18: AUCGUCG (DNA:RNA)
RNA: B1 RNA with A26U, C28G, C29U, U30C
DNA 1: CAATCTGAATTCCGGTCTCCC
DNA 2: TGGTGGCTACGACGGGATT
B19: UGAAAUA (DNA:RNA)
RNA: B13 RNA with C26G, U28A, G29A, G30U, C31A
DNA 1: CAATCTGAATTCCGGTCTCCC
DNA 2: TGGTGGCTACGACGGGATT
B20: AAGCUCA (DNA:RNA)
RNA: B1 RNA with C27G, C29U, U30C, G31A
DNA 1: CAATCTGAATTCCGGTCTCCC
DNA 2: TGGTGGCTACGACGGGATT

Numbering of substitutions follows the chain as printed; changes in the protein carry UniProt numbers. The list shows a part of the results.

The test addresses T1, RBFOX1 RRM (Homo sapiens, UniProt Q9NWB1 109-208).
T1 sequence: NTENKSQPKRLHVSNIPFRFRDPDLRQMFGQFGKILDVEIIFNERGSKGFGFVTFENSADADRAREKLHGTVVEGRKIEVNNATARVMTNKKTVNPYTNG
Briefly: EMSA; HiTS-Eq, 1 nM pool, 10 min; buffer printed only for the single-RNA assays: 10 mM Tris pH 7.5, 150 mM NaCl, 3.4 mM EDTA, 0.001% NP-40, 30 C. To be noted: tags: His6 N-terminal (pET28a); label: 5' 32P. An outline of the steps: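 A pool of RNA with 7 randomized nucleotides, 5′-radiolabelled and with DNA-annealed flanks, was equilibrated at 1 nM for 10 min in 50 µL with purified RbFox RRM, wild type or mutant, across increasing protein concentrations. Free RNA was separated by 8% native PAGE, excised, reverse-transcribed, barcoded by PCR and sequenced. Relative association constants were obtained from read-count changes of each RNA species versus the control reaction and normalised to the cognate motif.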
Consider B1, for which the binding signal was 0.00331 KA relative to UGCAUGU. Consider B2, for which the binding signal is 0.0172 KA relative to UGCAUGU. With B3 the figure was 0.00912 KA relative to UGCAUGU; with B4, 0.00318 KA relative to UGCAUGU; with B5, 0.0191 KA relative to UGCAUGU. With B6 the figure was 0.0501 KA relative to UGCAUGU. As to B7, the binding signal is 0.0161 KA relative to UGCAUGU. Turning to B8, the binding signal is 0.0079 KA relative to UGCAUGU. In the case of B9, the binding signal is 0.0071 KA relative to UGCAUGU. With B10, the binding signal is 0.00315 KA relative to UGCAUGU. For B11, the binding signal is 0.018 KA relative to UGCAUGU. With B12, the binding signal is 0.0161 KA relative to UGCAUGU.

As for B13, the binding signal is 0.00874 KA relative to UGCAUGU. For B14, the binding signal was 0.013 KA relative to UGCAUGU. B15: the binding signal was 0.00564 KA relative to UGCAUGU. As for B16, the binding signal is 0.0129 KA relative to UGCAUGU.

As to B17, the binding signal was 0.00425 KA relative to UGCAUGU. Consider B18, for which the binding signal was 0.0104 KA relative to UGCAUGU. As for B19, the binding signal is 0.00971 KA relative to UGCAUGU. Regarding B20, the binding signal was 0.0057 KA relative to UGCAUGU.

For the origin of these results see paper PMC9911399, “Two distinct binding modes provide the RNA-binding protein RbFox with extraordinary sequence specificity”.
